Reference: a collection of fitness landscapes (doi:10.1126/science.1257360)
Some of the results follow.

B1: PhoQ; a variant is named by its letters at X, in order, P23837 (parent)
chain: MKKLLRLFFPLSLRVRFLLATAAVVLVLSLAYGMVALIGYSVSFDKTTFRLLRGESNLFYTLAKWENNKLHVELPENIDKQSPTMTLIYDENGQLLWAQRDVPWLMKMIQPDWLKSNGFHEIEADVNDTSLLLSGDHSIQQQLQEVREDDDDAEMTHSVAVNVYPATSRMPKLTIVVVDTIPVELKSSYMVWSWFIYVLSANLLLVIPLLWVAAWWSLRPIEALAKEVRELEEHNRELLNPATTRELTSLVRNLNRLLKSERERYDKYRTTLTDLTHSLKTPLXXLQXXLRSLRSEKMSVSDAEPVMLEQISRISQQIGYYLHRASMRGGTLLSRELHPVAPLLDNLTSALNKVYQRKGVNISLDISPEISFVGEQNDFVEVMGNVLDNACKYCLEFVEISARQTDEHLYIVVEDDGPGIPLSKREVIFDRGQRVDTLRPGQGVGLAVAREITEQYEGKIVAGESMLGGARMEVIFGRQHSAPKDE

Variants of: B1
Experiment: enrichment ratio after two sorts for PhoP signalling (ratio (wild type AVST 3.29)); higher = more functional
Conditions: with PhoP (E. coli)

| Variant | enrichment ratio |
| --- | --- |
| QHPI | ≤ 0.25 |
| SHQL | ≤ 0.25 |
| GIIC | 0.274 |
| IYEN | ≤ 0.25 |
| LPCL | ≤ 0.25 |
| MAYQ | 9.57 |
| RDYR | ≤ 0.25 |
| IYME | ≤ 0.25 |
| PHDA | ≤ 0.25 |
| YKWT | ≤ 0.25 |
| IHDS | ≤ 0.25 |
| FSIP | ≤ 0.25 |
| GMLK | ≤ 0.25 |
| MVPI | ≤ 0.25 |
| NWPN | ≤ 0.25 |
| TKVC | 5.4 |
| MTYG | 6.7 |
| MHKE | ≤ 0.25 |
| PQRA | ≤ 0.25 |
| SHRY | ≤ 0.25 |
| KNGF | ≤ 0.25 |
| QAAY | ≤ 0.25 |
| IKWQ | ≤ 0.25 |
| GFWE | ≤ 0.25 |

| Variant | enrichment ratio |
| --- | --- |
| SLFE | ≤ 0.25 |
| KEFN | ≤ 0.25 |
| HHYI | ≤ 0.25 |
| VRFQ | ≤ 0.25 |
| GEKY | ≤ 0.25 |
| MLYQ | 18.8 |
| KFSG | ≤ 0.25 |
| AEHA | ≤ 0.25 |
| PHMK | ≤ 0.25 |
| KFSP | ≤ 0.25 |
| IPSC | ≤ 0.25 |
| FTLM | 8.49 |
| HPRK | ≤ 0.25 |
| RGDF | ≤ 0.25 |
| MKSG | ≤ 0.25 |
| ITWA | ≤ 0.25 |
| RGMQ | ≤ 0.25 |
| YSKP | ≤ 0.25 |
| TLTW | 1.34 |
| STAC | 4.33 |
| NQYQ | ≤ 0.25 |
| PGPF | ≤ 0.25 |
| PRCC | ≤ 0.25 |
| QHLP | ≤ 0.25 |

| Variant | enrichment ratio |
| --- | --- |
| LDGS | ≤ 0.25 |
| LDKG | ≤ 0.25 |
| SPMK | ≤ 0.25 |
| LGNT | ≤ 0.25 |
| NEPF | ≤ 0.25 |
| NQIF | ≤ 0.25 |
| TTFV | 1.16 |
| VADI | ≤ 0.25 |
| WMCP | ≤ 0.25 |
| VEFC | ≤ 0.25 |
| WSID | ≤ 0.25 |
| SWHE | ≤ 0.25 |
| AVVT | 0.37 |
| PDTM | ≤ 0.25 |
| SGNM | 6.15 |
| MWNI | ≤ 0.25 |
| IEPE | ≤ 0.25 |
| QIRW | ≤ 0.25 |
| PWTG | ≤ 0.25 |
| GTPM | ≤ 0.25 |
| GLIG | ≤ 0.25 |
| RWVL | ≤ 0.25 |
| GDWH | ≤ 0.25 |
| HKFQ | ≤ 0.25 |

| Variant | enrichment ratio |
| --- | --- |
| VEPL | ≤ 0.25 |
| GMNY | ≤ 0.25 |
| LLKY | ≤ 0.25 |
| HTYS | ≤ 0.25 |
| VWSE | ≤ 0.25 |
| FYPT | ≤ 0.25 |
| ASNL | 4.93 |
| IKRE | ≤ 0.25 |
| WCKL | ≤ 0.25 |
| TFQH | ≤ 0.25 |
| IFQK | ≤ 0.25 |
| DFSW | ≤ 0.25 |
| NCQF | ≤ 0.25 |
| DRYE | ≤ 0.25 |
| MQTA | ≤ 0.25 |
| AAVL | 8.94 |
| WNGF | ≤ 0.25 |
| MSTA | ≤ 0.25 |
| QYVN | ≤ 0.25 |
| KMGS | ≤ 0.25 |
| CLSN | ≤ 0.25 |
| EPPF | ≤ 0.25 |
| ATRA | ≤ 0.25 |
| GWTL | ≤ 0.25 |

| Variant | enrichment ratio |
| --- | --- |
| IHDT | ≤ 0.25 |
| SVGE | ≤ 0.25 |
| FIMG | ≤ 0.25 |
| YCAS | 0.465 |
| GHWM | ≤ 0.25 |
| EWSL | ≤ 0.25 |
| NLYH | ≤ 0.25 |
| PIES | ≤ 0.25 |
| FMMV | ≤ 0.25 |
| TTFM | ≤ 0.25 |
| KGFY | ≤ 0.25 |
| EVST | ≤ 0.25 |
| ADCG | 1.58 |
| YDDH | ≤ 0.25 |
| KWKF | ≤ 0.25 |
| WESC | ≤ 0.25 |
| PFTV | ≤ 0.25 |
| SMEP | ≤ 0.25 |
| VGHQ | ≤ 0.25 |
| LWWV | ≤ 0.25 |
| RPGI | ≤ 0.25 |
| VEPA | ≤ 0.25 |
| FAGI | ≤ 0.25 |
| SCMY | 4.95 |

| Variant | enrichment ratio |
| --- | --- |
| HTRP | ≤ 0.25 |
| ADGY | ≤ 0.25 |
| VCPH | ≤ 0.25 |
| GRKW | ≤ 0.25 |
| IYQL | ≤ 0.25 |
| ISLY | ≤ 0.25 |
| RIMP | ≤ 0.25 |
| PVSC | ≤ 0.25 |
| VKNA | ≤ 0.25 |
| TNVH | ≤ 0.25 |
| FKRC | ≤ 0.25 |
| TGFI | ≤ 0.25 |
| TNAM | 15.7 |
| IMDW | ≤ 0.25 |
| YILI | 0.374 |
| THDG | ≤ 0.25 |
| FTGF | ≤ 0.25 |
| AKGM | ≤ 0.25 |
| LKNR | ≤ 0.25 |
| MEYS | 25.6 |
| MDNV | ≤ 0.25 |
| FIYN | ≤ 0.25 |
| IEYQ | ≤ 0.25 |
| WHCW | ≤ 0.25 |

| Variant | enrichment ratio |
| --- | --- |
| ACII | 3.37 |
| LRMN | ≤ 0.25 |
| NNKL | ≤ 0.25 |
| TRYE | ≤ 0.25 |
| HGSM | 0.601 |
| ICGE | ≤ 0.25 |
| LWFC | ≤ 0.25 |
| QIGH | 14 |
| KTVN | ≤ 0.25 |
| SNDC | ≤ 0.25 |
| RRES | ≤ 0.25 |
| QYFW | ≤ 0.25 |
| DDSS | ≤ 0.25 |
| FCQD | ≤ 0.25 |
| DPVF | ≤ 0.25 |
| YRSQ | ≤ 0.25 |
| IYPG | ≤ 0.25 |
| PNRT | ≤ 0.25 |
| QFFV | ≤ 0.25 |
| MGTT | ≤ 0.25 |
| SCMR | 9.17 |
| KFWC | ≤ 0.25 |
| REHW | ≤ 0.25 |
| PKTI | ≤ 0.25 |

| Variant | enrichment ratio |
| --- | --- |
| HLTC | ≤ 0.25 |
| LASD | ≤ 0.25 |
| SKLQ | 10.1 |
| GDYM | ≤ 0.25 |
| RSMA | ≤ 0.25 |
| TCIS | ≤ 0.25 |
| YKFP | ≤ 0.25 |
| QDMW | ≤ 0.25 |
| DSMD | ≤ 0.25 |
| TATN | 0.569 |
| RDRH | ≤ 0.25 |
| SQCK | 9.83 |
| NHLH | ≤ 0.25 |
| HTTD | ≤ 0.25 |
| EVAM | ≤ 0.25 |
| DADN | ≤ 0.25 |
| ASKG | ≤ 0.25 |
| MVCF | 5.97 |
| RCQY | ≤ 0.25 |
| YSEI | ≤ 0.25 |
| INFA | ≤ 0.25 |
| RCWQ | ≤ 0.25 |
| NQRE | ≤ 0.25 |
| HSHE | ≤ 0.25 |

| Variant | enrichment ratio |
| --- | --- |
| DQGH | ≤ 0.25 |
| IQDD | ≤ 0.25 |
| QCAC | ≤ 0.25 |
| NVSM | ≤ 0.25 |
| RTRI | ≤ 0.25 |
| VHKV | ≤ 0.25 |
| NVGL | ≤ 0.25 |
| YRSS | ≤ 0.25 |
| KMIY | ≤ 0.25 |
| IATH | ≤ 0.25 |
| KLIN | ≤ 0.25 |
| YKQT | ≤ 0.25 |
| RLNN | ≤ 0.25 |
| VANK | ≤ 0.25 |
| TFSQ | 7.57 |
| YSFD | ≤ 0.25 |
| VQMN | ≤ 0.25 |
| EYAL | ≤ 0.25 |
| LNME | ≤ 0.25 |
| PFAI | ≤ 0.25 |
| AVTA | 3.71 |
| WGYE | ≤ 0.25 |
| TLTK | ≤ 0.25 |
| LGWD | ≤ 0.25 |

| Variant | enrichment ratio |
| --- | --- |
| IKTT | ≤ 0.25 |
| GGNT | ≤ 0.25 |
| KACQ | ≤ 0.25 |
| EMIK | ≤ 0.25 |
| VVWC | ≤ 0.25 |
| DIRR | ≤ 0.25 |
| GVPG | ≤ 0.25 |
| TWER | ≤ 0.25 |
| YRMD | ≤ 0.25 |
| DFNN | ≤ 0.25 |
| NMYP | ≤ 0.25 |
| TLHK | ≤ 0.25 |
| VITN | ≤ 0.25 |
| DTCN | ≤ 0.25 |
| SKGP | ≤ 0.25 |
| TIIA | ≤ 0.25 |
| MPLW | ≤ 0.25 |
| GHVR | ≤ 0.25 |
| MTRR | ≤ 0.25 |
| WSDL | ≤ 0.25 |
| PYWR | ≤ 0.25 |
| AVPP | ≤ 0.25 |
| MEDV | ≤ 0.25 |
| TVQE | 10.3 |

| Variant | enrichment ratio |
| --- | --- |
| MFFY | ≤ 0.25 |
| KLVC | ≤ 0.25 |
| YLKF | ≤ 0.25 |
| HYPE | ≤ 0.25 |
| DMAD | ≤ 0.25 |
| SIEF | ≤ 0.25 |
| KDKI | ≤ 0.25 |
| HPLT | ≤ 0.25 |
| SSMK | ≤ 0.25 |
| EFLL | ≤ 0.25 |
| YGPP | ≤ 0.25 |
| FQIK | ≤ 0.25 |
| YNPR | ≤ 0.25 |
| SEAF | 8.7 |
| MHAT | ≤ 0.25 |
| KSYE | ≤ 0.25 |
| DPNT | ≤ 0.25 |
| SRKR | ≤ 0.25 |
| PNWV | ≤ 0.25 |
| TEGF | 1.69 |
| NVKN | ≤ 0.25 |
| WKNK | ≤ 0.25 |
| TCIN | ≤ 0.25 |
| MYKR | ≤ 0.25 |

| Variant | enrichment ratio |
| --- | --- |
| TSPI | ≤ 0.25 |
| EAER | ≤ 0.25 |
| VTLI | 8.55 |
| WLFQ | ≤ 0.25 |
| LSCQ | ≤ 0.25 |
| MVAN | 15.8 |
| KYVE | ≤ 0.25 |
| WLKV | ≤ 0.25 |
| WKER | ≤ 0.25 |
| PESC | ≤ 0.25 |
| QPMP | ≤ 0.25 |
| TDTS | 3.18 |
| SSIP | ≤ 0.25 |
| KAFQ | ≤ 0.25 |
| ADRF | ≤ 0.25 |
| QYKI | ≤ 0.25 |
| KMAH | ≤ 0.25 |
| DAGI | ≤ 0.25 |
| PMTV | ≤ 0.25 |
| TLGT | 8.82 |
| WYMK | ≤ 0.25 |
| PFFM | ≤ 0.25 |
| IAGT | ≤ 0.25 |
| RPNV | ≤ 0.25 |

| Variant | enrichment ratio |
| --- | --- |
| NYEI | ≤ 0.25 |
| VKVY | ≤ 0.25 |
| IDAN | ≤ 0.25 |
| WLDW | ≤ 0.25 |
| MMYY | ≤ 0.25 |
| PHEH | ≤ 0.25 |
| PIIM | ≤ 0.25 |
| PMKM | ≤ 0.25 |
| GQHQ | ≤ 0.25 |
| KEYV | ≤ 0.25 |
| RYFS | ≤ 0.25 |
| NIYL | ≤ 0.25 |
| QVDH | 7.05 |
| LTWV | ≤ 0.25 |
| NYKK | ≤ 0.25 |
| SLDG | ≤ 0.25 |
| RPPV | ≤ 0.25 |
| AARY | ≤ 0.25 |
